# Toxic doses and inconclusive results are not listed. Certain results were filed several times, with different values. The list is limited to them. The source may hold further records. Results that share an entry differ, and nothing given here explains why; they may come from other doses, times, organisms or constructs than stated.
# Tested on: L1210 leukemia ip in BDF1 mice, survival T/C
# Assay: NCI In Vivo Anticancer Drug Screen. Data for tumor model L1210 Leukemia (intraperitoneal) in B6D2F1 (BDF1) mice
# Conditions: endpoint: mean survival time; dose: 20.0 mg/kg/injection; schedule: Q01DX001 (ip); vehicle: saline; higher = longer survival
structure (smiles),measurement,value
CS(=O)(=O)OCCN(CCOS(C)(=O)=O)c1cccc(F)c1,T/C,"98 % of control, 106 % of control, 151 % of control"

# — PubChem BioAssay AID248 (DTP/NCI, 2004)
